Reference: the supplement of paper PMC11876631
± gives the standard deviation of the averaged measurements. Laboratory Escherichia coli strains with one amino-acid change in an essential protein, pooled on minimal glucose agar with carbenicillin or gentamicin at twice the control MIC (plus kanamycin and chloramphenicol for the plasmids), 48 h. Fold change of barcode share against drug-free plates; higher = less susceptible. Active = above 20 in both replicates (the paper's putatively resistant). '<' = one read or none on drug, '>' = one read or none on a drug-free plate. Shares are relative, so most strains fall below 1 when a few take over. Listed are strains with at least 15 reads on both drug-free plates, and hits; most hits rest on fewer reference reads. Replicate rank correlation about 0.5. Edits are read from barcodes.

B1: valS; numbered along this chain (parent)
chain: MEKTYNPQDIEQPLYEHWEKQGYFKPNGDESQESFCIMIPPPNVTGSLHMGHAFQQTIMDTMIRYQRMQGKNTLWQVGTDHAGIATQMVVERKIAAEEGKTRHDYGREAFIDKIWEWKAESGGTITRQMRRLGNSVDWERERFTMDEGLSNAVKEVFVRLYKEDLIYRGKRLVNWDPKLRTAISDLEVENRESKGSMWHIRYPLADGAKTADGKDYLVVATTRPETLLGDTGVAVNPEDPRYKDLIGKYVILPLVNRRIPIVGDEHADMEKGTGCVKITPAHDFNDYEVGKRHALPMINILTFDGDIRESAQVFDTKGNESDVYSSEIPAEFQKLERFAARKAVVAAVDALGLLEEIKPHDLTVPYGDRGGVVIEPMLTDQWYVRADVLAKPAVEAVENGDIQFVPKQYENMYFSWMRDIQDWCISRQLWWGHRIPAWYDEAGNVYVGRNEDEVRKENNLGADVVLRQDEDVLDTWFSSALWTFSTLGWPENTDALRQFHPTSVMVSGFDIIFFWIARMIMMTMHFIKDENGKPQVPFHTVYMTGLIRDDEGQKMSKSKGNVIDPLDMVDGISLPELLEKRTGNMMQPQLADKIRKRTEKQFPNGIEPHGTDALRFTLAALASTGRDINWDMKRLEGYRNFCNKLWNASRFVLMNTEGQDCGFNGGEMTLSLADRWILAEFNQTIKAYREALDSFRFDIAAGILYEFTWNQFCDWYLELTKPVMNGGTEAELRGTRHTLVTVLEGLLRLAHPIIPFITETIWQRVKVLCGITADTIMLQPFPQYDASQVDEAALADTEWLKQAIVAVRNIRAEMNIAPGKPLELLLRGCSADAERRVNENRGFLQTLARLESITVLPADDKGPVSVTKIIDGAELLIPMAGLINKEDELARLAKEVAKIEGEISRIENKLANEGFVARAPEAVIAKEREKLEGYAEAKAKLIEQQAVIAAL
B2: nadC; numbered along this chain (parent)
chain: MPPRRYNPDTRRDELLERINLDIPGAVAQALREDLGGTVDANNDITAKLLPENSRSHATVITRENGVFCGKRWVEEVFIQLAGDDVTIIWHVDDGDVINANQSLFELEGPSRVLLTGERTALNFVQTLSGVASKVRHYVELLEGTNTQLLDTRKTLPGLRSALKYAVLCGGGANHRLGLSDAFLIKENHIIASGSVRQAVEKASWLHPDAPVEVEVENLEELDEALKAGADIIMLDNFETEQMREAVKRTNGKALLEVSGNVTDKTLREFAETGVDFISVGALTKHVQALDLSMRFR
B3: cca; numbered along this chain (parent)
chain: MKIYLVGGAVRDALLGLPVKDRDWVVVGSTPQEMLDAGYQQVGRDFPVFLHPQTHEEYALARTERKSGSGYTGFTCYAAPDVTLEDDLKRRDLTINALAQDDNGEIIDPYNGLGDLQNRLLRHVSPAFGEDPLRVLRVARFAARYAHLGFRIADETLALMREMTHAGELEHLTPERVWKETESALTTRNPQVFFQVLRDCGALRVLFPEIDALFGVPAPAKWHPEIDTGIHTLMTLSMAAMLSPQVDVRFATLCHDLGKGLTPPELWPRHHGHGPAGVKLVEQLCQRLRVPNEIRDLARLVAEFHDLIHTFPMLNPKTIVKLFDSIDAWRKPQRVEQLALTSEADVRGRTGFESADYPQGRWLREAWEVAQSVPTKAVVEAGFKGVEIREELTRRRIAAVASWKEQRCPKPE
B4: thrC; numbered along this chain (parent)
chain: MKLYNLKDHNEQVSFAQAVTQGLGKNQGLFFPHDLPEFSLTEIDEMLKLDFVTRSAKILSAFIGDEIPQEILEERVRAAFAFPAPVANVESDVGCLELFHGPTLAFKDFGGRFMAQMLTHIAGDKPVTILTATSGDTGAAVAHAFYGLPNVKVVILYPRGKISPLQEKLFCTLGGNIETVAIDGDFDACQALVKQAFDDEELKVALGLNSANSINISRLLAQICYYFEAVAQLPQETRNQLVVSVPSGNFGDLTAGLLAKSLGLPVKRFIAATNVNDTVPRFLHDGQWSPKATQATLSNAMDVSQPNNWPRVEELFRRKIWQLKELGYAAVDDETTQQTMRELKELGYTSEPHAAVAYRALRDQLNPGEYGLFLGTAHPAKFKESVEAILGETLDLPKELAERADLPLLSHNLPADFAALRKLMMNHQ

Variants of: B1
Experiment: barcode share on antibiotic plates over drug-free plates; higher = less susceptible
Settings: with Escherichia coli (laboratory strain); antibiotic: carbenicillin; 2× MIC (3.1 µg/mL)
Procedure: (§1)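 A pool of E. coli strains, each edited to carry one amino-acid change in an essential protein, was grown for 48 h on minimal glucose agar with or without antibiotic; strain barcodes were sequenced; mean of two replicates.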

Row | Variant | fold change of barcode share
1 | M505A | 0.314 ± 0.063

Same assay, conditions: with Escherichia coli (laboratory strain); antibiotic: gentamicin; 2× MIC (MIC 0.45 µg/mL)

Row | Variant | fold change of barcode share
2 | M505A | 0.00569 ± 0.0065

Variants of: B2
Experiment: as above
Settings: with Escherichia coli (laboratory strain); antibiotic: gentamicin; 2× MIC (MIC 0.45 µg/mL)
Procedure: as §1

Row | Variant | fold change of barcode share
3 | I278A | 0.0327 ± 0.027
4 | V125P | < 0.0143
5 | V125A | 0.015 ± 0.0086
6 | L104P | 0.0106 ± 0.0058
7 | L104Q | 5.1 ± 5.5
8 | L128P | 0.0977 ± 0.12
9 | L128W | 0.00609 ± 0.0015
10 | L128A | 0.0458 ± 0.057
11 | L128D | 0.122 ± 0.041
12 | L128Q | 0.0329 ± 0.043
13 | V131Q | 0.0537 ± 0.071
14 | V131W | 0.0273 ± 0.03
15 | V131A | 1.62 ± 2.3
16 | V131P | 0.0183 ± 0.017
17 | L114Q | 0.0113 ± 0.013
18 | L114A | 0.0216 ± 0.026
19 | V60W | < 0.00728
20 | V60A | 0.00792 ± 0.0077
21 | V167W | 0.0117 ± 0.0051
22 | V167A | 0.0197 ± 0.019
23 | V167Q | 0.0155 ± 0.006

Same assay, conditions: with Escherichia coli (laboratory strain); antibiotic: carbenicillin; 2× MIC (3.1 µg/mL)

Row | Variant | fold change of barcode share
24 | V125A | 0.388 ± 0.13
25 | L104P | 0.49 ± 0.016
26 | L104Q | 0.945 ± 0.057
27 | L128P | 0.956 ± 0.49
28 | L128W | 0.613 ± 0.26
29 | L128A | 0.623 ± 0.5
30 | L128D | 0.884 ± 0.37
31 | L128Q | 0.501 ± 0.23
32 | V131D | 0.9971 ± 0.0039
33 | V131Q | 0.457 ± 0.23
34 | V131W | 0.607 ± 0.23
35 | V131A | 0.506 ± 0.13
36 | V131P | 0.504 ± 0.031
37 | L114P | 4.11 ± 0.3
38 | L114Q | 0.398 ± 0.042
39 | L114A | 0.519 ± 0.045
40 | L114D | 5.17 ± 0.94
41 | V60W | 0.447 ± 0.29
42 | V60A | 0.27 ± 0.021
43 | V167D | 1.65 ± 0.13
44 | V167W | 0.399 ± 0.14
45 | V167A | 0.739 ± 0.19
46 | V167Q | 0.7103 ± 0.0064

Variants of: B3
Experiment: as above
Settings: with Escherichia coli (laboratory strain); antibiotic: carbenicillin; 2× MIC (3.1 µg/mL)
Procedure: as §1

Row | Variant | fold change of barcode share
47 | L206Q | 0.296 ± 0.036
48 | L206A | 0.393 ± 0.021
49 | L206P | 0.451 ± 0.21
50 | L206W | 0.6 ± 0.32
51 | L206D | 0.289 ± 0.048
52 | V26Q | 0.414 ± 0.28
53 | V26A | 0.245 ± 0.2
54 | V26P | 0.28 ± 0.21
55 | L136P | 0.363 ± 0.033
56 | L136W | 0.327 ± 0.054
57 | L136A | 0.815 ± 0.032
58 | L136D | 0.348 ± 0.056
59 | L136Q | 0.597 ± 0.12
60 | V27D | 0.193 ± 0.034
61 | V27A | 0.341 ± 0.09
62 | V27P | 0.287 ± 0.058
63 | V27Q | 0.302 ± 0.11
64 | V27W | 0.147 ± 0.074
65 | V25D | 0.351 ± 0.21
66 | V25Q | 0.26 ± 0.017
67 | V25A | 0.285 ± 0.019
68 | F207W | 0.3 ± 0.013
69 | F207Q | 1 ± 0.1
70 | F207D | 0.334 ± 0.03
71 | F207P | 1.04 ± 0.19
72 | F207A | 0.33 ± 0.041

Same assay, conditions: with Escherichia coli (laboratory strain); antibiotic: gentamicin; 2× MIC (MIC 0.45 µg/mL)

Row | Variant | fold change of barcode share
73 | L206Q | 0.00519 ± 0.00038
74 | L206A | 0.0548 ± 0.068
75 | L206P | 0.0191 ± 0.023
76 | L206W | 0.0818 ± 0.054
77 | L206D | 0.00852 ± 0.0066
78 | V26Q | < 0.00561
79 | V26A | < 0.00632
80 | V26P | < 0.00717
81 | L136P | 0.041 ± 0.056
82 | L136W | 0.00443 ± 0.0015
83 | L136A | 0.0145 ± 0.004
84 | L136D | 0.00476 ± 0.0014
85 | L136Q | 0.007 ± 0.0056
86 | V27D | < 0.00464
87 | V27A | < 0.00305
88 | V27P | 0.00521 ± 0.0027
89 | V27Q | < 0.00358
90 | V27W | < 0.0128
91 | V25D | 0.0115 ± 0.0051
92 | V25Q | 0.00402 ± 0.0027
93 | V25A | 0.00557 ± 0.0033
94 | F207W | 0.00404 ± 0.0027
95 | F207Q | 0.00524 ± 0.0039
96 | F207D | 0.004 ± 0.003
97 | F207A | 0.00505 ± 0.0023

Variants of: B4
Experiment: as above
Settings: with Escherichia coli (laboratory strain); antibiotic: gentamicin; 2× MIC (MIC 0.45 µg/mL)
Procedure: as §1

Row | Variant | fold change of barcode share
98 | L374A | 0.0298 ± 0.024
99 | L374W | 0.0155 ± 0.012
100 | M117W | < 0.0196
101 | M117Q | < 0.0164
102 | M117A | < 0.0169
103 | V279W | 0.0169 ± 0.013

Same assay, conditions: with Escherichia coli (laboratory strain); antibiotic: carbenicillin; 2× MIC (3.1 µg/mL)

Row | Variant | fold change of barcode share
104 | L374W | 0.994 ± 0.29
105 | L374P | 0.563 ± 0.065
106 | M117W | 0.261 ± 0.02
107 | M117A | 0.274 ± 0.088
108 | V279W | 0.842 ± 0.15
